According to article PMC4336329 (PLoS ONE, 2015):
The whole screen tested about 310,000 compounds, of which about 14,000 (4.5%) showed an effect of 50% or more. The effect is printed as a negative number. This is one part of the list.

Target: human ether-à-go-go-related gene (hERG) potassium channel (human, UniProt Q12809)
Test: primary screen, population patch clamp on CHO cells stably expressing hERG
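Note: peak tail current of the secondary pulse compared with the same well before compound.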

Sequence of human ether-à-go-go-related gene (hERG) potassium channel (Q12809 whole entry, looked up): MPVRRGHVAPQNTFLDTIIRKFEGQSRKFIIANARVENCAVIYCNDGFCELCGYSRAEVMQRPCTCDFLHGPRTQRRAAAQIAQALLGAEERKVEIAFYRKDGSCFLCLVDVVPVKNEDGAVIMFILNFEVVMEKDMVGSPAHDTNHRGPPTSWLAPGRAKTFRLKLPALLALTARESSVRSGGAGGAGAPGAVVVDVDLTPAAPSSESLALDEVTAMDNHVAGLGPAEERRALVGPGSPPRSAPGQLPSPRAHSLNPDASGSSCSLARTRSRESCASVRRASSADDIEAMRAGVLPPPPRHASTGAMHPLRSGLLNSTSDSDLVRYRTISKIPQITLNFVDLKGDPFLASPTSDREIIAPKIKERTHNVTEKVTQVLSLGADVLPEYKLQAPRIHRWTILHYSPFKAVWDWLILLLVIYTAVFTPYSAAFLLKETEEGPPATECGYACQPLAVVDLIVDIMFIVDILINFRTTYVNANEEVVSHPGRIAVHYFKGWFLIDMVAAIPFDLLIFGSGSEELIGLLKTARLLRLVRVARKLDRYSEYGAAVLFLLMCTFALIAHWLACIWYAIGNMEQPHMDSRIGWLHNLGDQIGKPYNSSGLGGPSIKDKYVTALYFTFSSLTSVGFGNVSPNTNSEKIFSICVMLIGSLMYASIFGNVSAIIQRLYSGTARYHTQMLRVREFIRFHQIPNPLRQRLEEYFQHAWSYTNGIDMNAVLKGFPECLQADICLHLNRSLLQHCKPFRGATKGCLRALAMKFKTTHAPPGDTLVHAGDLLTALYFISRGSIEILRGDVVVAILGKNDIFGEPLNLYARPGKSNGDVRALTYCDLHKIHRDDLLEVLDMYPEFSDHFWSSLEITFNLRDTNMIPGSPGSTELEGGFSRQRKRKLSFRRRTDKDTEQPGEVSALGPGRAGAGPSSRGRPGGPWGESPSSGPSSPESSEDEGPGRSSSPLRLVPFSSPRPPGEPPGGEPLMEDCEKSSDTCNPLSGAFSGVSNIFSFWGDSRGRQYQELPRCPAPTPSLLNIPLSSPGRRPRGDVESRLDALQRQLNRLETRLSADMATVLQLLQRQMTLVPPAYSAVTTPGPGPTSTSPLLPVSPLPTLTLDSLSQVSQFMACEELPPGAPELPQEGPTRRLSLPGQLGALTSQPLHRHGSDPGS

SMILES	hERG current change (%, negative = inhibition) at 10uM [%]
CCOc1ccccc1NC(=O)CC(O)(C(F)(F)F)C(F)(F)F	-4.56
Cc1nn(C)c(C)c1S(=O)(=O)N(CC(=O)NCc1ccco1)c1ccc(C(C)C)cc1	16.6
CCN(CC)CCCOc1ccc(Cl)c(Cl)c1	-60.5
Cc1cc(NS(=O)(=O)c2c(C)[nH]c(=O)[nH]c2=O)ccc1Br	14.9
CCOC(=O)c1nnn(CC(=O)NC(=O)Nc2ccc(F)cc2)c1C(=O)OCC	-20.8
O=C(c1ccc2nc(N3CCOCC3)sc2c1)N1CCN(C(=O)c2ccco2)CC1	-47.4
Cc1c(C(=O)N2CCCCC2C)sc2nc3n(c(=O)c12)CCC3 (stereo not drawn)	9.9
COCCCn1c(=O)c2ccccc2n2c(=S)[nH]nc12	15.5
COc1ccccc1C(=O)N/C(=C\c1ccccc1)C(=O)NC(C)C(=O)O (stereo not drawn)	16.5
CC(C)c1ccc(N2C(=O)CC(NNC(=O)c3ccccc3Cl)C2=O)cc1 (stereo not drawn)	22.6
O=C(O)c1cccc(-c2ccc(/C=N/n3cnc4sc5c(c4c3=O)CCCC5)o2)c1	8.27
Nc1nc(Cl)cc(NCCc2ccccc2)n1	13
Cc1ccc(Cn2cc(S(=O)(=O)c3ccc(Cl)cc3)c(=O)c3cc(F)ccc32)cc1	-14.6
C=CCOc1ccc(/C=N/n2nnnc2N)cc1OC	8.83
CCOc1ccc2nc(SCC(=O)NC(=O)NCc3ccco3)[nH]c2c1	-17.1
CCOC(=O)c1ccccc1NC(=O)c1cn(-c2ccc(OC)cc2)c(=O)c2ccccc12	-4.21
COc1ccc(C/C(C)=N/Nc2nc(C)cc(=O)[nH]2)cc1	20.5
O=C(N/N=C\c1ccc(Oc2ccccc2)cc1)c1csnn1	-11.7
CCOC(=O)c1[nH]c(C)c(C(=O)N(C)C)c1C	4.87
N#CC1=C(N)Oc2cc3ccccc3cc2C1c1cccnc1 (stereo not drawn)	18
O=C(NC(=S)Nc1ccccc1N1CCCCC1)c1ccccc1	22.5
CC(=O)c1c(C)[nH]c(C(=O)OCC(=O)N2CCc3ccccc32)c1C	3.9
Cc1ccc(NC(=S)N(C)C)cc1C	-4.6

SMILES	hERG current change (%, negative = inhibition) at 10uM [%]
CC(=O)c1cccc(NCC(=O)Nc2cc(S(=O)(=O)N3CCCCC3)ccc2C)c1	-5.8
O=C(O)C1CCN(C(=O)OCc2ccccc2)CC1	13.8
COc1cccc(CNC(=O)C2CCN(S(=O)(=O)N3CCC(C)CC3)CC2)c1	-3.44
Cc1ccc(C(=O)NCC(C)(C)O)cc1	11.7
N#Cc1ccc(C23CC4(C2)[C@H](CN(Cc2cccnc2)[C@@H]4c2ccccc2)C3c2ccccc2)cc1 (stereo partly drawn)	1.18
C=CCn1c(SCC(N)=O)nc2nc3c(cc2c1=O)COC(C)(C)C3	4.77
CCOC(=O)c1c(C)[nH]c(C(=O)COC(=O)c2cnccn2)c1C	-1.87
Cc1ccc(N2C(=O)CC(Cc3cccc(C)c3)C2=O)cc1 (stereo not drawn)	9.39
Cn1c(O)c(C=NCCN2CCNCC2)c(=O)[nH]c1=O	13.6
CCc1ccc(S(=O)(=O)NCCc2csc(C)n2)s1	15.5
O=C(NC1C2CC3CC(C2)CC1C3)C1CC1 (stereo not drawn)	0.685
CSc1ccc(/C=C(/NC(=O)c2ccco2)C(=O)NCc2ccco2)cc1	10.3
COc1cccc(/C=C2\SC(=S)N(CCC(=O)N3CCCCC3CCO)C2=O)c1 (stereo not drawn)	15.4
O=C1NC(NS(=O)(=O)c2ccccc2)(C(F)(F)F)C(=O)N1CCc1ccccc1 (stereo not drawn)	21.1
CC(=O)c1c(C)nc2ccc([N+](=O)[O-])cc2c1-c1ccccc1	-11.6
COc1ccc(CN2C(=O)C(O)(CC(=O)c3c(C)n[nH]c3C)c3ccccc32)cc1OC (stereo not drawn)	20
COc1cccc2sc(N(CCCN(C)C)C(=O)c3ccc(S(=O)(=O)N4CCCc5ccccc54)cc3)nc12.Cl	-68.3
Cn1c(=O)cc(C(=O)N/N=C/c2ccc(Cl)cc2)[nH]c1=O	-28.5
CC1=NN(C(N)=S)C(=O)C1N=Nc1cccc(C(=O)O)c1 (stereo not drawn)	19.6
COc1ccc(N2C(=O)C3CCCN3C2c2ccc(C)cc2)cc1Cl (stereo not drawn)	8.8
COC(=O)c1ccccc1NC(=O)CSc1nc(O)c(-c2ccccc2)c(=O)[nH]1	-9.79
COc1cccc2cc(-c3nc4ccccc4o3)c(=O)oc12	11.1
CCCCCCCC1(C)NC(=O)N(CC(=O)Nc2cc(C)on2)C1=O (stereo not drawn)	-19

SMILES	hERG current change (%, negative = inhibition) at 10uM [%]
O=C(Cn1nnc2ccccc21)c1cccc([N+](=O)[O-])c1	8.85
CCN(CC(=O)Nc1cc(S(=O)(=O)N2CCOCC2)ccc1Cl)Cc1ccccc1	-3.4
CC(C)OCCCNCC(O)c1ccccc1 (stereo not drawn)	1.04
CN(NC(=O)c1ccc(Cl)cc1)c1ncc(C(F)(F)F)cc1Cl	7.71
O=C(/C=C/c1ccccc1)NNC(=O)c1ccco1	4.03
O=C1c2ccccc2C(=O)N1Cc1cccnc1	17.1
Cc1nnc(SCC(=O)Nc2nsc(-c3ccc(Cl)cc3)n2)s1	0.522
Cc1c(C(=O)N2c3ccccc3Sc3ccccc32)cccc1[N+](=O)[O-]	4.13
O=C(NCCCN1CCOCC1)c1ccc(S(=O)(=O)Nc2ccccc2F)cc1	11.7
Cc1[nH]c2ccccc2c1-c1csc(N)n1	17.8
CCSc1nc2ccccc2n1C(=O)Oc1ccccc1	-0.933
COc1ccc(-c2cc(C)no2)cc1S(=O)(=O)Nc1cccc(CN2CCCC2)c1	-13.8
Brc1cccc(OCCCCN2CCCCC2)c1.O=C(O)C(=O)O	-68.9
COc1ccc(NC(=S)NN(C)C(=S)Nc2ccc(OC)cc2)cc1	26.1
COc1ccc(CNC(=O)c2cc3c(=O)[nH]c4ccccc4c3n2C)cc1	1.45
CSCC[C@H](NC(=O)Nc1ccc(C)cc1)C(=O)O	13.7
COc1ccccc1-c1cc(C(=O)Nc2cc(C)nn2-c2ccccc2)no1	17
Cc1cc(C)c(S(=O)(=O)Nc2cc(SCC(=O)O)c(O)c3ccccc23)cc1C	-0.947
CNC(=O)CNC(=O)Nc1ccc(Cl)c(Cl)c1	9.11
COc1cc2oc3cc(C#Cc4ccc(N)cc4)ccc3c(=O)c2cc1OC	13
COC(=O)c1sccc1NC(=O)c1c(F)c(F)c(F)c(F)c1F	27
Cc1ccc(C(=O)NNC(=O)c2ccco2)cc1	2.25
O=C(Cc1ccccc1)NNC1CC(=O)N(c2ccc(Cl)cc2)C1=O (stereo not drawn)	5.98

SMILES	hERG current change (%, negative = inhibition) at 10uM [%]
O=S(=O)(c1cnc[nH]1)N1CCCCCC1	11.5
CC/C=C(\NC(C)=O)c1ccccc1	8.17
O=C(CSc1nnc2c3c4c(sc3ncn12)CCCC4)NCc1ccco1	11.4
COc1ccc(S(=O)(=O)N2CCOCC2)cc1NC(=O)c1ccccc1C	-0.0605
CSc1cccc(NC(=S)N2CCCN(Cc3ccc(F)cc3)C2)c1	-43.6
Cc1ccc(C(NC(=O)c2cccc(S(=O)(=O)N3CCN(C)CC3)c2)c2ccccc2)cc1 (stereo not drawn)	-61.8
COc1ccc(Cc2nnc(NC(=O)C3CCCO3)s2)cc1OC (stereo not drawn)	6.23
COc1cc2c(cc1NC(=O)C(C)Sc1ccc(C)cc1)oc1ccccc12 (stereo not drawn)	5.87
CN(CC(=O)NCCc1ccc(S(N)(=O)=O)cc1)S(=O)(=O)c1cccc2nsnc12	5.3
Cc1ccc(C(=O)OCC(=O)NC2CCCc3ccccc32)o1 (stereo not drawn)	9.86
COc1ccc(NC(=O)Cc2ccc(C)cc2)cc1S(=O)(=O)N1CCCCC1	-14.5
Cc1ccc(C(C(=O)NCc2ccccc2)N(Cc2ccco2)C(=O)c2snc(C(N)=O)c2N)o1 (stereo not drawn)	9.09
CCCCN1C(=O)NC(c2ccc(OC)cc2)C(C(=O)OCc2ccccc2)=C1C (stereo not drawn)	-0.628
CC(C)(C)C(=O)Nc1ccc(C(=O)NCc2cccnc2)cc1	-11.3
Cc1ccc2nc(SCC(=O)Nc3ccc4c(c3)CCC4)[nH]c2c1	8.84
Cc1ccc(S(=O)(=O)c2nc(S(=O)(=O)c3ccc(C)cc3)c(NCc3ccco3)s2)cc1	12.9
NS(=O)(=O)c1ccc(CNC(=O)/C=C/c2ccco2)cc1	-1.83
CCc1ccc2c(c1)cc(CN(C(=S)Nc1ccccc1C)C1CC1)c1nnnn12	-3.98
COc1ccc(OC)c(C(=O)COC(=O)c2ccccc2O)c1	1.19
COCCNC(=O)c1cnn2c(C(F)F)cc(-c3ccc(C)cc3)nc12	-21.3
O=C(/C=C/c1ccco1)Nc1nc(-c2ccccn2)cs1	5.46
